Laboratory results from the supplement of paper PMC3334620.
The full ranking holds about 33,000 sequences; the median of “E-score (-0.5 to 0.5)” is about -0.012, and the highest 2% start at about 0.27. Some of the results follow.

These sequences were tested against T1, Vhr1 (UniProt P40522) (assay: PBM E-score (8-mer binding enrichment) (E-score (-0.5 to 0.5)); higher = stronger / more preferred TF binding; most listed sequences are background and not binding sites). Conditions: protein concentration: 200 nM; construct: GST-full length.
T1 sequence: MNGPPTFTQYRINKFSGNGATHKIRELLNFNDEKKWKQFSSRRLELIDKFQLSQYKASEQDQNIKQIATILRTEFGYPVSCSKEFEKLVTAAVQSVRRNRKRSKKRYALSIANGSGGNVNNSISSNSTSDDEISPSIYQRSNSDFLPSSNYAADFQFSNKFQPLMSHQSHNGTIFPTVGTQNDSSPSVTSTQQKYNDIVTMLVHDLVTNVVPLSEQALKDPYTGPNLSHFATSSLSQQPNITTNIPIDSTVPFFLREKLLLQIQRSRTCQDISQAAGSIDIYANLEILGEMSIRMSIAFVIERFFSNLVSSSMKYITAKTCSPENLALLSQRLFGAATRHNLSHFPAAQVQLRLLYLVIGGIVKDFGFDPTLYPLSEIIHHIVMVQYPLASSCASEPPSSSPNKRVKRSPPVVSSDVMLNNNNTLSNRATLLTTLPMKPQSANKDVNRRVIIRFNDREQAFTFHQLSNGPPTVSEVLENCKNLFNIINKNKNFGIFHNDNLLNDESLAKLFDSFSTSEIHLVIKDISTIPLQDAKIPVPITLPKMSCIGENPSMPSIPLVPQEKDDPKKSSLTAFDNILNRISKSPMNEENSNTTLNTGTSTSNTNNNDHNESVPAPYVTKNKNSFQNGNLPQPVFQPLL
In short: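 PURExpress in vitro transcription/translation supplied GST-tagged yeast transcription factors, either full-length or DNA-binding domain. Applied at about 100-200 nM to universal all-10-mer Agilent arrays double-stranded by primer extension, the bound protein was detected with fluorescent anti-GST. E-scores, modified Wilcoxon-Mann-Whitney statistics, were given by the Universal PBM Analysis Suite to ungapped eight-base words pooled with their reverse complements after masliner normalisation.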

Sequence | PBM E-score
CCGACCAG | 0.0371
TGCTGCAA | 0.0653
ATAGGTGA | 0.0863
AAATCTAT | -0.139
GCCCATAC | 0.138
TCCCCCAA | -0.3
TGGCGGAA | -0.188
ACCGGAAA | -0.212
GGATTTAA | -0.111
CTGTGATC | -0.00833
ACAAGCAA | 0.00548
AAGGACGG | -0.125
CCGTTCCG | -0.0154
CGATGTAC | 0.111
CTAAGCGC | -0.212
CAGCCTGC | -0.0482
CAGATTAA | 0.067
GTCTGAAA | -0.0548
AACCGTAA | -0.21
ACCCCAGA | -0.0498
AGCTGCCG | -0.00013
GTCTACAA | -0.0911
AGACCCAG | 0.0353
ACCCGCCA | 0.115
CTCGGACC | 0.0226

Sequence | PBM E-score
GAATAATC | 0.115
CCCACGGA | -0.164
AGATTAAT | 0.0836
AAGGGTGT | -0.0257
ATGGTACG | 0.0914
GGTCTCAC | -0.0703
AATACGGA | -0.0132
GGCGCCTA | -0.145
CTTTGTTC | 0.00428
AACGAGAG | 0.0134
TAGAGCTA | -0.166
CATGATAG | 0.148
CAAAGCGA | 0.00287
CCTTGCTC | -0.0656
CGAACTTC | -0.274
AATTCGTG | -0.026
ATGCACAC | 0.0667
ATAAAATC | 0.0544
ACGAGGTG | -0.00893
AGTCACTA | 0.366
CCCCCATA | -0.274
GCCCGTTA | -0.324
CAAGATGC | 0.0821
ATATGCTG | 0.0731
GCAATACA | 0.242

Sequence | PBM E-score
CAAGTATC | 0.016
ACATCGCA | 0.0595
CATCAGGC | 0.0611
GCTTCGTA | -0.112
ATAGGTTG | -0.0251
ACCACGCT | 0.0488
GAGAGTAA | 0.0595
ACAATGTA | 0.0623
TCACATAA | 0.0625
GCCCGAGC | 0.113
ATCGTTAC | 0.0466
GCCCCTAA | -0.114
AGCACGTA | 0.093
CAGTGTGG | -0.0544
CAAACTGC | -0.00074
ACGCGTAC | -0.00383
GATACGCC | 0.127
CGCATTAG | -0.0348
CTTACGAC | -0.222
AAAGTCAG | 0.119
AAAACAAG | -0.0719
CGTGCGAG | 0.154
ACGGGCGC | 0.0622
AAGCGTAT | -0.168
AATTAACT | -0.0839

Sequence | PBM E-score
AAGCGCTA | -0.0706
CAGCCTAC | 0.0688
CCTCGCCG | -0.118
CGCGGGCA | 0.287
CTCTACGC | -0.15
CGGGCCAG | 0.0138
CTTGGGGC | 0.0928
CGTAAGCA | -0.222
CAGTCCAG | -0.172
AGATAAAC | -0.0729
ACTGGACC | -0.0493
GAATGTGC | -0.117
ATCATGAA | 0.118
CAGCGCAA | 0.0144
AAGACATG | -0.0734
GGCCCAAA | -0.186
GACCCCAA | -0.0381
AGATGTTG | -0.0539
ATGAGGGA | 0.027
AGTTTAAA | -0.132
AGGTCGGG | -0.0253
GACGCTCA | -0.165
GCAGAAGC | -0.128
ACAGTTAT | 0.0825
AGCTAGCA | -0.119

Sequence | PBM E-score
AGCCTCTC | -0.247
CCACACCG | 0.185
CCTGCGAC | -0.0485
CAGCAGCG | -0.0154
AATGCAGT | 0.0713
CCATGTGC | 0.161
AGCCAGGG | 0.00759
ACTGGATG | -0.0104
AGTTATGG | -0.0297
CCCTTCAG | 0.055
ATCTCAGA | 0.00554
CACCGATA | 0.15
CCGGTGCA | -0.108
AGCTGTAA | -0.0737
CCGGCAGG | -0.223
CCTTTGAG | -0.241
CTCATATC | 0.203
TATGGTCA | 0.0512
ATGATGCC | 0.108
ATTCACGC | 0.117
GACTACGA | 0.208
GAAGCCCA | -0.0644
GATGTACC | 0.16
AACCGGGC | -0.0416
CAGTTTGC | 0.051

Sequence | PBM E-score
CATAAAGG | -0.0919
CCTCCTAA | -0.27
CAGTCTCC | 0.141
ATTGAGCC | 0.137
TATAAGGA | 0.149
TAAGTAGA | -0.0454
CACCTAAG | 0.0719
GATAGACC | -0.0134
ATAAAAAC | -0.227
CACCAGGC | 0.0955
TACGTAGA | -0.167
ACAGCTCA | 0.0391
CATTCCGC | -0.038
ATAGACAG | -0.0433
GGATATAC | 0.0747
CAGCTCAA | 0.0751
ATTTGGCC | -0.128
AACGCCTT | -0.344
ATCATAAT | 0.206
CGGCGTTA | -0.0527
CTCGGTTC | -0.112
AAGTATTC | -0.0531
AGAGTGCT | -0.067
CGGCGTGA | 0.142
CCTACCAA | 0.0676

Sequence | PBM E-score
AGGGTGCA | -0.033
CCCTGCGA | -0.0219
CGTCGGCA | 0.044
CGTCGCAA | 0.0851
AAATCACC | 0.312
GCACAGGA | 0.00719
GTCAAAGA | -0.228
AATCCGCT | -0.0793
AACTTGAA | -0.103
CTTTCTGA | -0.169
AGGCCTGG | -0.223
ACACAGCG | 0.312
TAGTCCAA | -0.157
CGTTCCAC | -0.161
AGTACTGG | -0.0217
ACATCGTA | 0.146
ATTAAAGA | -0.0149
TCGTTCCA | -0.338
ATGTTTGC | -0.116
ACATACGA | 0.126
TCCGTGCA | -0.00278
GTGATGGA | 0.0761
